In publication PMC4336329 (PLoS ONE, 2015):
Among all 310,000 compounds or so, about 14,000 (4.5%) showed an effect of 50% or more. The effect is printed as a negative number. The list shows a part of the results.

Molecular target: human ether-à-go-go-related gene (hERG) potassium channel (human, UniProt Q12809)
Assay: primary screen, population patch clamp on CHO cells stably expressing hERG
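Note: peak tail current of the secondary pulse compared with the same well before compound.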

Chain of human ether-à-go-go-related gene (hERG) potassium channel (Q12809 whole entry, looked up): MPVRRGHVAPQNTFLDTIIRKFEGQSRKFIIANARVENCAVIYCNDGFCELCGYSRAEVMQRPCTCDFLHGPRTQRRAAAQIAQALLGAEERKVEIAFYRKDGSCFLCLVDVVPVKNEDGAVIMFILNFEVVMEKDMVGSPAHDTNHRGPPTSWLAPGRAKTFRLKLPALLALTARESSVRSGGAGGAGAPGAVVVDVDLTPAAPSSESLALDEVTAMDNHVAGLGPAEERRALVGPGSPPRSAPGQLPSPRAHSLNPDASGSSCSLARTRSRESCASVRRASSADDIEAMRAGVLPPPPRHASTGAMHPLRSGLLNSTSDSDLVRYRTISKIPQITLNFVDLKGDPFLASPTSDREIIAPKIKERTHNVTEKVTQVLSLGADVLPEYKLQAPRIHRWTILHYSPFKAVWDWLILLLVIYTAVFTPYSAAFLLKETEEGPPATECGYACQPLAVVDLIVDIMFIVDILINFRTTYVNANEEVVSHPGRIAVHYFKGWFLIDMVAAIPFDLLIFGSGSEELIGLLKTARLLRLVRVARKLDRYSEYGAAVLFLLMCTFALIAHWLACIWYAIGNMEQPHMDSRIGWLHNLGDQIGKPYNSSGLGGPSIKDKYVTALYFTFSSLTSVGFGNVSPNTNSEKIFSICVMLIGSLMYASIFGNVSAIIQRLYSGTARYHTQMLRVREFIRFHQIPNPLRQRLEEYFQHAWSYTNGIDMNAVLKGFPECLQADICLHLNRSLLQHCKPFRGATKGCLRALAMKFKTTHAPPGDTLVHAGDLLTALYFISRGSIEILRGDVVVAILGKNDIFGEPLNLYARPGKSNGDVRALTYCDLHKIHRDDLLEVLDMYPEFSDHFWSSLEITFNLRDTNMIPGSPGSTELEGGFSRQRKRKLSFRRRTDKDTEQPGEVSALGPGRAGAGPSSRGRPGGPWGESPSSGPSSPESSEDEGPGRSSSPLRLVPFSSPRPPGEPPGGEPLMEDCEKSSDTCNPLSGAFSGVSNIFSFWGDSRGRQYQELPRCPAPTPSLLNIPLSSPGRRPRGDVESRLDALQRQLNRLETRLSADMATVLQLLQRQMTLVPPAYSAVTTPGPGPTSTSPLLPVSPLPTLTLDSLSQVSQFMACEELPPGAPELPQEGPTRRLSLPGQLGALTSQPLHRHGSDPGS

First: Cc1nn(Cc2noc(C(=O)NC3CCC(C)CC3)n2)c(C)c1Br (stereo not drawn)
Second: CC(C)N1C(=O)c2ccccc2C1C(=O)NC1CCCCCC1 (stereo not drawn)
The “hERG current change (%, negative = inhibition) at 10uM” value of the first is higher: 18.9% for the first, 9.81% for the second.

Going from COc1ccc(C2=NOC(C(=O)N3CCCCCC3)C2)cc1OC (stereo not drawn) to Cn1cc(C(=O)N2CCCCC2)c2ccccc21, the “hERG current change (%, negative = inhibition) at 10uM” value rises from -21.6% to 4.66%.

Compared with CC(OC(=O)c1ccc2ccccc2n1)C(=O)c1ccccc1 (stereo not drawn), Cc1c(C(=O)OCC(=O)NCc2ccccc2)oc2ccccc12 is higher in “hERG current change (%, negative = inhibition) at 10uM” value: -30% for the first, 11.3% for the second.

Going from CCCC1(C(=O)OCC)NC(c2ccc(O)cc2)C2C(=O)N(c3ccc4c(c3)OCCO4)C(=O)C21 (stereo not drawn) to CCOC(=O)C1=C(CS(=O)(=O)c2ccc(C)cc2)NC(=O)NC1c1cc(OC)c(O)c(OC)c1 (stereo not drawn), the “hERG current change (%, negative = inhibition) at 10uM” value rises from -2.64% to 9.12%.

Going from CN(C)c1cc[n+](/C(C(=S)Nc2ccc(SC(F)F)cc2)=C(/[O-])c2ccccc2)cc1 to CC(=O)Nc1ccc(/C=N/Nc2ccc(C(=O)c3c(C)cc4ccccn34)cc2[N+](=O)[O-])cc1, the “hERG current change (%, negative = inhibition) at 10uM” value rises from 2.92% to 8.94%.

First: COc1ccc(OC)c(NC(=O)C(CCSC)NS(=O)(=O)c2cccs2)c1 (stereo not drawn)
Second: COc1ccc(OC)c(NS(=O)(=O)c2cccc3cccnc23)c1
The “hERG current change (%, negative = inhibition) at 10uM” value of the first is lower: -25.6% for the first, 20.7% for the second.

First: CC(=O)C[C@H](O)CC(=O)[C@H]1OC(=O)CC/C=C\Cc2ccccc21
Second: CC[C@@H](C)CN1C(=O)N[C@@H](CCc2ccccc2)C(C(C)=O)=C1C
The “hERG current change (%, negative = inhibition) at 10uM” value of the first is higher: 14.9% for the first, -10.2% for the second.

Going from CC(=O)Nc1ccc(Nc2nc(Cl)nc(Nc3ccc(NC(C)=O)cc3)n2)cc1 to Cc1ccc(NC(=O)C/C(N)=N/OC(=O)Nc2cccc(C)c2)cc1, the “hERG current change (%, negative = inhibition) at 10uM” value falls from 10% to -23.2%.

First: CCC(CC)C(=O)N1CC(=O)Nc2ccc(F)cc2C1c1ccccc1 (stereo not drawn)
Second: CCOc1ccccc1NC(=O)Cn1[nH]c(=O)c2ccccc2c1=O
The “hERG current change (%, negative = inhibition) at 10uM” value of the first is lower: -11.4% for the first, 16.3% for the second.

Going from CCOC(=O)CC1=NS(=O)(=O)c2ccccc2N1 to O=C(CN1C(=O)c2ccccc2S1(=O)=O)Nc1ccccc1, the “hERG current change (%, negative = inhibition) at 10uM” value falls from 1.76% to -3.55%.

Going from O=C(NCc1ccc2c(c1)OCO2)C1CCC(CNS(=O)(=O)c2ccccc2)CC1 (stereo not drawn) to O=C(NCc1ccc2c(c1)OCO2)c1ccc(S(=O)(=O)N2CCCCC2)cc1, the “hERG current change (%, negative = inhibition) at 10uM” value falls from -7.84% to -16.8%.

Compared with O=C(Nc1nccs1)C1CCCN1S(=O)(=O)c1cccc2cccnc12 (stereo not drawn), CSc1ncccc1C(=O)Nc1cccc(S(=O)(=O)N2CCCCC2)c1 is lower in “hERG current change (%, negative = inhibition) at 10uM” value: 0.177% for the first, -64.3% for the second.

First: O=C(c1ccccc1)N(Cc1nc2ccccc2c(=O)[nH]1)C1CCCCC1
Second: O=C(CSc1nnc(Cn2c(=O)sc3ccccc32)n1-c1ccccc1)NCC1CCCO1 (stereo not drawn)
The “hERG current change (%, negative = inhibition) at 10uM” value of the first is higher: 1.35% for the first, -0.314% for the second.

Going from COc1cc(CNCCO)cc(Br)c1OCc1cccs1.Cl to CC(C)NC(=O)N(Cc1ccccc1)Cc1cccs1, the “hERG current change (%, negative = inhibition) at 10uM” value rises from -8.81% to 0.639%.

First: CCOc1ccccc1N(CC(=O)NC(C)(C)C)C(=O)CCC(=O)Nc1nccs1
Second: Cc1cccc(C)c1NC(=O)CN(C)CC(=O)Nc1ccccc1Br
The “hERG current change (%, negative = inhibition) at 10uM” value of the first is lower: -4.92% for the first, -3.22% for the second.

Going from CC(=O)Oc1cccc(/C=N\NC(=O)C(=O)N/N=C/c2cccc(OC(C)=O)c2)c1 to COC(=O)N/N=C/c1ccc(-c2cc(Cl)ccc2Cl)o1, the “hERG current change (%, negative = inhibition) at 10uM” value falls from 2.4% to -11.2%.

Going from CC(NS(=O)(=O)c1c(N)n(C)c(=O)n(C)c1=O)c1ccccc1 (stereo not drawn) to CN1CCN(S(=O)(=O)c2ccc(C(=O)Nc3ccccc3)cc2)CC1, the “hERG current change (%, negative = inhibition) at 10uM” value falls from 20.7% to -6.18%.

Compared with C=CCn1c(O)c(N=Nc2nc3ccccc3c(=O)n2-c2ccccc2)c2ccccc21, CCn1c(O)c(N=Nc2ccc(Cl)c(C(=O)O)c2)c2ccccc21 is higher in “hERG current change (%, negative = inhibition) at 10uM” value: 10.5% for the first, 12.7% for the second.

Compared with Cc1cccc(C(CC(=O)NCc2ccco2)c2ccccc2)c1O (stereo not drawn), Cc1ccccc1-n1c(SCC(=O)NCc2cccs2)nnc1-c1ccncc1 is lower in “hERG current change (%, negative = inhibition) at 10uM” value: -19.1% for the first, -33.5% for the second.

Compared with COc1cc(OC)c2c(=O)cc(-c3cccnc3)oc2c1, COc1ccc([N+](=O)[O-])cc1NC(=O)C(C)OC(=O)c1cccnc1 (stereo not drawn) is lower in “hERG current change (%, negative = inhibition) at 10uM” value: 12.1% for the first, -42.1% for the second.

First: COc1ccc(OC)c(/C=C2\SC(=S)N(NS(=O)(=O)c3ccc(C)cc3)C2=O)c1
Second: CCOc1ccc(/C=N/NC(=O)c2cc3c(OC)cc(OC)c(OC)c3[nH]2)cc1
The “hERG current change (%, negative = inhibition) at 10uM” value of the first is higher: -9.36% for the first, -16.5% for the second.

Going from O=C(NCCCCc1ccccc1)c1cccc([N+](=O)[O-])c1 to COCCCNC(=O)c1ccccc1N(Cc1ccccc1)S(=O)(=O)c1ccc(OC)cc1, the “hERG current change (%, negative = inhibition) at 10uM” value rises from -45.6% to -4.75%.

Going from O=C(NC12CCC(O)C(SC1)/C2=N/O)c1ccccc1 (stereo not drawn) to CNC1=CC(=O)CC(c2ccccc2)C1 (stereo not drawn), the “hERG current change (%, negative = inhibition) at 10uM” value falls from 13% to -1.58%.

First: CC(C)CNC(=O)CSc1nc2nn(-c3ccccc3)c(=O)c-2c2n1CCCCC2
Second: CS(=O)(=O)c1ccc(Cl)c(NC(=O)CSc2nc3ccccc3c(=O)n2Cc2ccco2)c1
The “hERG current change (%, negative = inhibition) at 10uM” value of the first is higher: -18% for the first, -32.7% for the second.

Compared with COC(=O)[C@@]1(Cc2ccccc2)C=C[C@@H](C)N1C(C)=O, COCC(=O)NNC(=O)c1ccccc1OC is higher in “hERG current change (%, negative = inhibition) at 10uM” value: 2.06% for the first, 15.4% for the second.

Going from CSCCC(NC(=O)c1ccc([N+](=O)[O-])cc1Cl)C(=O)OCC(=O)C12CC3CC(CC(C3)C1)C2 (stereo not drawn) to COc1ccc(NC(=O)CN(C)C(=O)C2CSC3(C)CCC(=O)N23)cc1 (stereo not drawn), the “hERG current change (%, negative = inhibition) at 10uM” value falls from 12% to 2.27%.

Going from Cc1onc(-c2ccccc2)c1C(=O)Nc1ccc(S(=O)(=O)N2CCOCC2)cc1 to Cc1ccc(NC(=S)Nc2ccc(S(=O)(=O)N3CCOCC3)cc2)cc1S(=O)(=O)N1CCOCC1, the “hERG current change (%, negative = inhibition) at 10uM” value rises from -29.6% to 0.293%.

First: O=c1cc(CO)oc(CN2CCCC2)c1O
Second: COCCCn1nnnc1SCC(=O)N1CCCC1
The “hERG current change (%, negative = inhibition) at 10uM” value of the first is lower: -2.85% for the first, 1.47% for the second.

First: Cc1nc(N2CCN(c3ccccn3)CC2)c2c(C)c(C(=O)Nc3ccc(F)cc3F)sc2n1
Second: Cc1ccc(C(=O)N2CCCC(N3CCN(c4ccccc4F)CC3)C2)s1 (stereo not drawn)
The “hERG current change (%, negative = inhibition) at 10uM” value of the first is lower: -57.9% for the first, -18.3% for the second.

First: O=C(O)c1ccccc1OCCOCCOc1ccccc1C(=O)O
Second: CCOC(=O)C1CCN(C(=O)c2ccccc2Oc2ccccc2)CC1
The “hERG current change (%, negative = inhibition) at 10uM” value of the first is higher: 11.5% for the first, -16% for the second.

First: S=C(NCc1ccncc1)NC1CCCCC1
Second: O=C(NCCC1=CCCCC1)C1CCN(S(=O)(=O)c2ccc(Br)s2)CC1
The “hERG current change (%, negative = inhibition) at 10uM” value of the first is higher: 4.36% for the first, 3.57% for the second.

Going from C/C(=N\NC(=O)COc1cc(C)cc(C)c1)c1ccc(N2CCOCC2)cc1 to Cc1ccc2nc(N3CCOCC3)c(C=O)c(=O)n2c1, the “hERG current change (%, negative = inhibition) at 10uM” value rises from 4.74% to 10.5%.

First: COc1cc2c(cc1OC)[C@@H]1Cc3cc4c(cc3[C@H](C2)N1C)OCO4.Cl
Second: COc1ccc(OCc2cc(C(=O)N(C)C3CCOC3)no2)c(Cl)c1 (stereo not drawn)
The “hERG current change (%, negative = inhibition) at 10uM” value of the first is lower: -9.39% for the first, -8.91% for the second.

Going from CS(=O)(=O)N(CC(=O)N1CCOCC1)c1ccc2c(c1)OCO2 to Cc1cccc(NC(=O)CNC(=O)CN2CCN(C)CC2)c1C, the “hERG current change (%, negative = inhibition) at 10uM” value falls from 18.7% to 7.6%.

First: Cc1c(Nc2nc(-c3cccc([N+](=O)[O-])c3)cs2)c(=O)n(-c2ccccc2)n1C
Second: CCN(CC)S(=O)(=O)c1cccc(-c2nnc(SCc3nnc(-c4ccccc4)o3)n2C)c1
The “hERG current change (%, negative = inhibition) at 10uM” value of the first is higher: -18% for the first, -67.4% for the second.

Going from CC(C)CC(C(=O)NC(C)(C)C)N(CC1CCCO1)C(=O)c1snc(C(N)=O)c1N (stereo not drawn) to Cc1noc(C)c1COc1ccc(C(=O)OCC(=O)N2c3ccccc3NC(=O)C2(C)C)cc1, the “hERG current change (%, negative = inhibition) at 10uM” value rises from -0.137% to 2.47%.

First: Cc1ccc(NC(=S)N(C)N)cc1Cl
Second: CCOC(=O)/C(=C/Nc1ccc(F)c(F)c1)[N+](=O)[O-]
The “hERG current change (%, negative = inhibition) at 10uM” value of the first is higher: 16.8% for the first, 16.1% for the second.

Compared with O=C(NCc1nnc(SCC(=O)N2CCc3ccccc32)o1)c1ccco1, O=C1/C(=C/N(C(=O)c2ccco2)c2ccc(Cl)cc2)Sc2ccccc21 is lower in “hERG current change (%, negative = inhibition) at 10uM” value: 8.27% for the first, -1.02% for the second.

Going from COc1ccc(C(=O)O/N=C2\CCCc3nonc32)cc1 to CCOc1ccc(/C=N/NC(N)=S)cc1, the “hERG current change (%, negative = inhibition) at 10uM” value falls from 37.3% to 11.6%.

First: O=C1C2CC=CCC2C(=O)N1c1n[nH]c(Cc2ccccc2)n1 (stereo not drawn)
Second: O=C(CN1C(=O)C2C3C=CC(C4CC34)C2C1=O)Nc1cnc2ccccc2c1 (stereo not drawn)
The “hERG current change (%, negative = inhibition) at 10uM” value of the first is higher: 2.31% for the first, -3.67% for the second.

First: CCCCN(CC)S(=O)(=O)c1ccc(C(=O)Nc2nnc(-c3cccs3)o2)cc1
Second: O=C(COC(=O)c1ccc(O)cc1)Nc1ccc2[nH]c(=O)[nH]c2c1
The “hERG current change (%, negative = inhibition) at 10uM” value of the first is lower: -8.71% for the first, 2.48% for the second.

Going from COCCNC(=O)Cc1ccc(Br)cc1 to N=c1sc2ccccc2n1-c1ccccc1, the “hERG current change (%, negative = inhibition) at 10uM” value falls from 15% to -27.1%.

Compared with O=S(=O)(c1ccsc1)N1CC=C(c2ccccc2)CC1, N#CC(Sc1ccccn1)c1ccc(Cl)cc1Cl (stereo not drawn) is lower in “hERG current change (%, negative = inhibition) at 10uM” value: 15.7% for the first, 4.76% for the second.

COc1cccc(/C=N/NC(=S)NC2CC3CC2C2C=CCC32)c1O (stereo not drawn) was tested, and the “hERG current change (%, negative = inhibition) at 10uM” value was 12.5%.
